# Assay results: the RNAGym collection of RNA variant scans (doi:10.1073/pnas.2313332121)
# Variants at the background level are over-represented here.
# B1: TPR 5TU (parent)
# chain: GGAUCUUCUCGAUCUAACAAAAAAGACAAAUCUGCCACAAAGCUUGAGAGCAUCUUCGGAUGCAGAGGCGGCAGCCUUCGGUGGCGCGAUAGCGCCAACGUUCUCAACUAUGACACGCAAAACGCGUGCUCCGUUGAAUGGAGUUUAUCAUG
# Variants of: B1
# Experiment: polymerase ribozyme fitness, log enrichment relative to wild type (log ratio); higher = more active; in vitro selection for triplet polymerase activity
# Procedure, shortened: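 Mutant libraries of each subunit of a heterodimeric triplet polymerase ribozyme were built by PCR and transcribed. Each library went through one round of in vitro selection in triplicate: annealing with biotinylated primer, partner subunit and triplets, frozen incubation at −7 °C, gel excision of extended constructs, streptavidin-bead capture and RT-PCR. Input and output libraries were Illumina-sequenced; only genotypes with ≥10 input reads and ≥1 read per output were kept. Fitness is log2(genotype enrichment/wild-type enrichment), using inverse-variance-weighted replicate averages.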
row,Variant,polymerase ribozyme fitness (log ratio)
1,A17G U31C A49C G50C C75G C93G,≤ -4.2
2,A17G U31C G46A C76U C96U A120G C125G,≤ -4.2
3,A17G U31G C35A A37U,≤ -4.2
4,A17G U33A A40G G68U G92A,≤ -4.2
5,A17G U44A U55A A73U U77A G92A U101G C118U,≤ -4.2
6,A17G U44C U45A G48U C95U A98G G124A,≤ -4.2
7,A17G U53A G70U A107G A120C,≤ -4.2
8,A17G U53A U61A C85U A97U C108U,≤ -4.2
9,A17G U55A A106C C123A G124U G136C A138U,≤ -4.2
10,A17G U56A G62C G152A,-3.06
11,A17G U61A G71A G143A,≤ -4.2
12,A17G U61G U90C C93G G152C,≤ -4.2
13,A17G U78G G84C C85U U90C G117U,≤ -4.2
14,A17G U109G G140U,-3.77
15,A17G U134G,-1.76
16,A17G U145C,0.174
17,A17G U151G,≤ -4.2
18,A17U,-0.256
19,A17U A19C G42U U56C C76A G88A,≤ -4.2
20,A17U A19G A26C A47C A66U G86U U111A,≤ -4.2
21,A17U A19U A22G G88U A110G,≤ -4.2

row,Variant,polymerase ribozyme fitness (log ratio)
1,A17U A19U A41U C87U C103G G140A G143C,≤ -4.2
2,A17U A19U C63U G68C C95U C96A G140A,≤ -4.2
3,A17U A20C A26C C93U C131U,-2.3
4,A17U A20C C57U A60U C93A G94U A122C G126U,≤ -4.2
5,A17U A20G C63A G92A A150U,-2.12
6,A17U A20U A37U C51U C85U,≤ -4.2
7,A17U A20U C32A G34A C99U,≤ -4.2
8,A17U A20U G50C,≤ -4.2
9,A17U A21G A49G U53G C54U C85U,≤ -4.2
10,A17U A21U G67C C76U A91U C118G,≤ -4.2
11,A17U A22C A23G G25A G50C U55A C75A G80A C87U U90C C103A,≤ -4.2
12,A17U A22C C57A G81C U127G G143C G152U,≤ -4.2
13,A17U A22G C36A G84U A120G,≤ -4.2
14,A17U A22U A26G G34U C57U G59A C93U,≤ -4.2
15,A17U A22U A52G G92C A115G,-2.67
16,A17U A22U U44A G83C C131U,≤ -4.2
17,A17U A23C C99U C108U U135A,≤ -4.2
18,A17U A23C U44C A60C A66C C72A G84U G140C,≤ -4.2
19,A17U A23G G42A A47C G81U G92U C99U C103A A110G U145A,≤ -4.2
20,A17U A24U C57A C63U G65C C76G C93U C105U C123G A137G,≤ -4.2
21,A17U A24U G50C C75G G83C A137C G141A,≤ -4.2

row,Variant,polymerase ribozyme fitness (log ratio)
1,A17U A24U U44A G58A G68A C87U C125U,≤ -4.2
2,A17U A26C A41C C118A,≤ -4.2
3,A17U A26C G62A G86U C99U U134C A137U G140A A147U,≤ -4.2
4,A17U A26C G62U U78G G100A G152U,≤ -4.2
5,A17U A26G C72U A91G U101G C108U G140C G141U,≤ -4.2
6,A17U A26U C36G A122U,≤ -4.2
7,A17U A28U,≤ -4.2
8,A17U A28U C32U U111A U145G,≤ -4.2
9,A17U A28U U56C G92U C118G G140U,≤ -4.2
10,A17U A29C A40U U53A C85A C96A G143A,≤ -4.2
11,A17U A29G A41U U82G A89G U135G G141U,≤ -4.2
12,A17U A29U A41C C93G G140U,≤ -4.2
13,A17U A29U A120C G128U,≤ -4.2
14,A17U A29U C93A G141U,≤ -4.2
15,A17U A29U G94C A120U U134G,≤ -4.2
16,A17U A30C C38U U53G G58U C99U C132U,≤ -4.2
17,A17U A30C C54U C72A C93G,≤ -4.2
18,A17U A30C C72U C75U C85G,≤ -4.2
19,A17U A30C G42C G65C U77G,≤ -4.2
20,A17U A30C G81C C105U,≤ -4.2
21,A17U A37G U53G C95A C99G C103A G128U,≤ -4.2

row,Variant,polymerase ribozyme fitness (log ratio)
1,A17U A37U G59C G67C A91U A113C C123G G140U,≤ -4.2
2,A17U A37U G83C A91C A98G G124U,≤ -4.2
3,A17U A39C C75U,≤ -4.2
4,A17U A39C U90G C96U G100U C105G,≤ -4.2
5,A17U A40G G94C C132U,-4.03
6,A17U A40G U44A G84A A97U G112U,≤ -4.2
7,A17U A41C U56A U90A C93G A97U C123U G128U,≤ -4.2
8,A17U A47C C51G U61A G83A,≤ -4.2
9,A17U A47C C57U A89G G94A A97G C129A,≤ -4.2
10,A17U A47C G68U G88C,≤ -4.2
11,A17U A47U G71A C75G C93A,≤ -4.2
12,A17U A47U U56A U78C A91U,≤ -4.2
13,A17U A49C G50C,≤ -4.2
14,A17U A49C G80C C87G C103U G143C U144A,≤ -4.2
15,A17U A49G G68C C87U,≤ -4.2
16,A17U A49U A60G U61A A107C,≤ -4.2
17,A17U A49U C85A A97U,≤ -4.2
18,A17U A52C C57A C76G A91G C103G,≤ -4.2
19,A17U A60C C85A A106U G141A,≤ -4.2
20,A17U A64C C85U C87A U101G A107C G141A,≤ -4.2
